# Measurements taken from the supplement of paper PMC10600219.
# Values joined by “and” are separate entries in the source; they are usually repeats but may differ in a detail not shown here. Identical values can stand only once. Counter-ions that a name gives are not always drawn. In all, about 2,800 compounds were measured (“cell viability relative to vehicle”: median about 1.1, lowest 2% from about 0.19 on). This is one part of the list.
# System: NCI-H2228 parental
# Assay: cell viability relative to vehicle (fraction of vehicle); NCI-H2228 is an ALK-positive lung cancer line and DTP means drug-tolerant persister; higher = less growth inhibition
# Conditions: 100 nM; treatment time 6 days
# How it was run: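 Drug-tolerant persister NCI-H2228 cells, produced by 13 days in 1000 nM of a targeted drug, and their parental counterparts were seeded into 384-well plates and, the following day, given the 3114-agent TargetMol anti-cancer compound library at 100 nM or DMSO vehicle. After 6 days, the CellTiter-Glo 3D Cell Viability Assay was used to read ATP. Each entry reports viability compared with vehicle-treated cells.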
row,SMILES,cell viability
1,Cc1c(Cn2c(C)nc3c(C(=O)O)cc(N4CCOCC4)cc32)cccc1C(F)(F)F,1.09
2,O=C(NCc1ccc(Oc2ccccc2)cc1)c1nc(-c2cc(Br)c(O)c(Br)c2)no1,0.915
3,Nc1cc(F)ccc1NC(=O)c1ccc(CNC(=O)/C=C/c2cccnc2)cc1 [Chidamide],0.862
4,Cc1c(CC(=O)O)c2cccnc2n1Cc1ccc(S(C)(=O)=O)cc1C(F)(F)F [Fevipiprant],1.14
5,Cc1[nH]c(/C=C2\C(=O)Nc3ccc(S(=O)(=O)Cc4c(Cl)cccc4Cl)cc32)c(C)c1C(=O)N1CCC[C@@H]1CN1CCCC1,1.11
6,N#CC(=C(/N)Sc1ccccc1N)/C(C#N)=C(\N)Sc1ccccc1N,1.05
7,CC1=C(C(=O)O)N2C(=O)[C@@H](NC(=O)[C@H](N)c3ccc(O)cc3)[C@H]2SC1 [Cefadroxil],1.13
8,Nc1nc(Nc2ccc(S(N)(=O)=O)cc2)nn1C(=O)c1c(F)cccc1F,1.03
9,CO[C@@H](C)Cn1c(=O)n(C)c2cnc3ccc(-c4cncc(C(C)(C)O)c4)cc3c21,0.412
10,CC(C)c1onc(-c2c(Cl)cccc2Cl)c1COc1ccc(/C=C/c2cccc(C(=O)O)c2)c(Cl)c1,1.03
11,Cc1ccc(C)c(OCCn2cc(C(=O)O)c3ccccc32)c1,0.92
12,C=CCN1CCCC1CNC(=O)c1cc2nn[nH]c2cc1OC (stereo unspecified) [Alizapride hydrochloride],1.22
13,COc1ccc(Br)cc1NC(=O)Nc1cccc2c1ccn2Cc1ccnc(N)c1,1.12
14,CC(C)C[C@H](NC(=O)c1cc2ccccc2s1)C(=O)N1CCN(C(=O)[C@H](CO)NS(=O)(=O)c2ccc(Cl)cc2Cl)CC1,1.04
15,CC(C)(Oc1ccc(C2CC2(Cl)Cl)cc1)C(=O)O (stereo unspecified) [Ciprofibrate],1.11
16,c1ccc2c(-c3cnn4cc(-c5ccc(N6CCNCC6)cc5)cnc34)ccnc2c1,1.07 and 1.13
17,O=C(CCN1CCN(C(=O)OCc2cc(Cl)cc(Cl)c2)CC1)c1ccc2[nH]c(=O)oc2c1,1.09
18,COc1ccc(-c2oc3c(CC=C(C)C)c(O)cc(O)c3c(=O)c2O)cc1 [Icaritin],1.1
19,CCOc1nc2cccc(C(=O)OC(C)OC(=O)OC3CCCCC3)c2n1Cc1ccc(-c2ccccc2-c2nn[nH]n2)cc1 (stereo unspecified) [Candesartan Cilexetil],1.03
20,COc1c(O)cc(O)c2c(=O)cc(-c3ccccc3)oc12 [Wogonin],1.1
21,Cc1ccc(NC(=S)NNc2c([N+](=O)[O-])cc(C(F)(F)F)cc2[N+](=O)[O-])cc1Cl,1.09
22,O=C(COCC(=O)N1CCN(C(c2ccccc2)c2ccccc2)CC1)Nc1ccc(Cl)cc1C(=O)O [TM5275 sodium],0.996
23,Nc1ccc(S(N)(=O)=O)cc1 [Sulfanilamide],1.19
24,COc1cc2ncnc(Nc3ccc(Oc4ccccc4)cc3)c2cc1OC [Src Inhibitor 1],1.1
25,CC(C)=C1CC[C@@H](C)CC1=O [Pulegone],1.03
26,O=C(O)/C=C/c1ccccc1 [Cinnamic acid],1.23

row,SMILES,cell viability
1,CCCOc1ccc(CCc2nc3cc(-c4c(C)noc4C)ccc3n2CCN2CCOCC2)cc1 [PF-CBP1 hydrochloride],1.06
2,Oc1ccc(-c2cc(=S)ss2)cc1 [Desmethylanethol trithione],1.03
3,CC(C)(C)C#Cc1cc(N(C(=O)[C@H]2CC[C@H](C)CC2)[C@H]2CC[C@H](O)CC2)c(C(=O)O)s1 [Lomibuvir],1.18
4,CCOC(=O)c1ccc(C#Cc2ccc3c(c2)C(C)(C)CCS3)nc1 [Tazarotene],0.702
5,Cn1c(=O)c(F)c(Nc2ccc(I)cc2F)c2c(=O)n(C[C@@H](O)CO)cnc21,0.818
6,COc1ccc(/C=C/C(=O)C2(C(=O)/C=C/c3ccc(OC)c(OC)c3)CCCCC2)cc1OC,1.18
7,NCCNc1ccc(NCCN)c2c1C(=O)c1ccncc1C2=O [Pixantrone dimaleate],0.405
8,COC(=O)c1c2c(c3ccccc3c1O)OC(C)(C)C=C2 [Mollugin],1.07
9,COc1ccc(-c2cc3c(C)nc(N)nc3n([C@H]3CC[C@H](OCCO)CC3)c2=O)cn1,0.485
10,O=c1[nH]c(=O)n([C@H]2C[C@H](O)[C@@H](CO)O2)cc1/C=C/Br [Brivudine],1.05
11,CC(=O)OC(C)C[N+](C)(C)C (stereo unspecified) [Methacholine Chloride],1.05
12,CCCCOc1ccc(CC(=O)NO)cc1 [Bufexamac],1.15
13,C=CCc1ccccc1OCC(O)CNC(C)C (stereo unspecified) [Alprenolol],0.844
14,Oc1c(Cl)cc(Cl)cc1Sc1cc(Cl)cc(Cl)c1O [Bithionol],1.18
15,Cc1ccc(O)c([C@H](CCN(C(C)C)C(C)C)c2ccccc2)c1 [Tolterodine tartrate],1.19
16,Cc1cc(C)cc(NC(=O)Cc2ccc(OC(C)(C)C(=O)O)cc2)c1 [Efaproxiral Sodium],0.973
17,CCN1/C(=C/C(C)=O)Sc2ccc(OC)cc21,1.08
18,Nc1nc(=O)c2c([nH]1)NCC(CNc1ccc(C(=O)N[C@@H](CCC(=O)O)C(=O)O)cc1)N2C=O (stereo partly specified) [Calcium folinate],1.08
19,O=C(O)c1ccnc2ccccc12 [4-Quinolinecarboxylic acid],1
20,O=C(O)c1cc(=O)c2c(OCC(O)COc3cccc4oc(C(=O)O)cc(=O)c34)cccc2o1 [Sodium cromoglycate],1.03
21,O=c1c(O)c(-c2ccccc2)oc2cc(O)cc(O)c12 [Galangin],1.08
22,CCOc1ccc(Cc2cc([C@@H]3O[C@H](CO)[C@@H](O)[C@H](O)[C@H]3O)ccc2Cl)cc1 [Dapagliflozin],0.78
23,O=c1cc(CN2CCOCC2)occ1OCCCCCSc1ccnc2cc(C(F)(F)F)ccc12,1.03
24,C[C@@H]1O[C@@H](O[C@@H]2[C@H](O)[C@@H](O)[C@H](O[C@H]3CC[C@@]4(C)C(CC[C@]5(C)C4C=C[C@]46OC[C@@]7(CCC(C)(C)CC74)[C@@H](O)C[C@]65C)C3(C)C)O[C@@H]2CO[C@@H]2O[C@H](CO)[C@@H](O)[C@H](O)[C@H]2O)[C@H](O)[C@H](O)[C@H]1O (stereo partly specified) [Saikosaponin C],1.15
25,COc1cc(/C=C/CO)cc(OC)c1O[C@@H]1O[C@H](CO)[C@@H](O)[C@H](O)[C@H]1O [eleutheroside-b],1.13
